Article PMC8141066
These are yes or no findings as the source states them, for the method shown. In cells and extracts the contact can be indirect. Some results given as binding are weak or reduced against the parent protein; the word gives no strength. For part of these data: Tags and fused reporters may be left off the sequences shown.

Amino acid sequences for entries named in this document (tags omitted).
UniProt O94973: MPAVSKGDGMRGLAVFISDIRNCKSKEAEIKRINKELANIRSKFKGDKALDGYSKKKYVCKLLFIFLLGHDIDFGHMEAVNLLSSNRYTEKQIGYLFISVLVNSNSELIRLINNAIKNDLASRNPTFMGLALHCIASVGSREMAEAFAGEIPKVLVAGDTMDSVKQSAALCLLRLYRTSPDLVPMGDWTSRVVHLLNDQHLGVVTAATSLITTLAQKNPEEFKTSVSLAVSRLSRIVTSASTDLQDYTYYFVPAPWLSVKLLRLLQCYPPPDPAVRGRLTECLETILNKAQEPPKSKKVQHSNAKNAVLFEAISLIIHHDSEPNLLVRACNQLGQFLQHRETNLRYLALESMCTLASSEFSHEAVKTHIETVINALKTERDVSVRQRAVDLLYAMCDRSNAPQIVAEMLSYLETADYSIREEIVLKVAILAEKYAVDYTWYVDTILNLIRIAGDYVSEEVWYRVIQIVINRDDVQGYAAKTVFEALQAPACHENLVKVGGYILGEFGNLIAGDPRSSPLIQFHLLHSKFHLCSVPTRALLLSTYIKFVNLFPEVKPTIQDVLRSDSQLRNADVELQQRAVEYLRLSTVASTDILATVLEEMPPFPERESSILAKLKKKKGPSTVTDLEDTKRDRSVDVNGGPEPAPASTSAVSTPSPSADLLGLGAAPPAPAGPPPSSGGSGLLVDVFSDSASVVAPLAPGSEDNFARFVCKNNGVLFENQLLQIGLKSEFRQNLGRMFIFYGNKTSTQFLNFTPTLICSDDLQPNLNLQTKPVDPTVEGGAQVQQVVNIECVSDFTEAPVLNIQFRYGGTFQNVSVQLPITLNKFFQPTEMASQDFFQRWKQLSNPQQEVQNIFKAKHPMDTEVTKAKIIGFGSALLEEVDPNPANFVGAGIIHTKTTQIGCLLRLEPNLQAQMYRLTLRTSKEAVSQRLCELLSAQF
UniProt Q00610: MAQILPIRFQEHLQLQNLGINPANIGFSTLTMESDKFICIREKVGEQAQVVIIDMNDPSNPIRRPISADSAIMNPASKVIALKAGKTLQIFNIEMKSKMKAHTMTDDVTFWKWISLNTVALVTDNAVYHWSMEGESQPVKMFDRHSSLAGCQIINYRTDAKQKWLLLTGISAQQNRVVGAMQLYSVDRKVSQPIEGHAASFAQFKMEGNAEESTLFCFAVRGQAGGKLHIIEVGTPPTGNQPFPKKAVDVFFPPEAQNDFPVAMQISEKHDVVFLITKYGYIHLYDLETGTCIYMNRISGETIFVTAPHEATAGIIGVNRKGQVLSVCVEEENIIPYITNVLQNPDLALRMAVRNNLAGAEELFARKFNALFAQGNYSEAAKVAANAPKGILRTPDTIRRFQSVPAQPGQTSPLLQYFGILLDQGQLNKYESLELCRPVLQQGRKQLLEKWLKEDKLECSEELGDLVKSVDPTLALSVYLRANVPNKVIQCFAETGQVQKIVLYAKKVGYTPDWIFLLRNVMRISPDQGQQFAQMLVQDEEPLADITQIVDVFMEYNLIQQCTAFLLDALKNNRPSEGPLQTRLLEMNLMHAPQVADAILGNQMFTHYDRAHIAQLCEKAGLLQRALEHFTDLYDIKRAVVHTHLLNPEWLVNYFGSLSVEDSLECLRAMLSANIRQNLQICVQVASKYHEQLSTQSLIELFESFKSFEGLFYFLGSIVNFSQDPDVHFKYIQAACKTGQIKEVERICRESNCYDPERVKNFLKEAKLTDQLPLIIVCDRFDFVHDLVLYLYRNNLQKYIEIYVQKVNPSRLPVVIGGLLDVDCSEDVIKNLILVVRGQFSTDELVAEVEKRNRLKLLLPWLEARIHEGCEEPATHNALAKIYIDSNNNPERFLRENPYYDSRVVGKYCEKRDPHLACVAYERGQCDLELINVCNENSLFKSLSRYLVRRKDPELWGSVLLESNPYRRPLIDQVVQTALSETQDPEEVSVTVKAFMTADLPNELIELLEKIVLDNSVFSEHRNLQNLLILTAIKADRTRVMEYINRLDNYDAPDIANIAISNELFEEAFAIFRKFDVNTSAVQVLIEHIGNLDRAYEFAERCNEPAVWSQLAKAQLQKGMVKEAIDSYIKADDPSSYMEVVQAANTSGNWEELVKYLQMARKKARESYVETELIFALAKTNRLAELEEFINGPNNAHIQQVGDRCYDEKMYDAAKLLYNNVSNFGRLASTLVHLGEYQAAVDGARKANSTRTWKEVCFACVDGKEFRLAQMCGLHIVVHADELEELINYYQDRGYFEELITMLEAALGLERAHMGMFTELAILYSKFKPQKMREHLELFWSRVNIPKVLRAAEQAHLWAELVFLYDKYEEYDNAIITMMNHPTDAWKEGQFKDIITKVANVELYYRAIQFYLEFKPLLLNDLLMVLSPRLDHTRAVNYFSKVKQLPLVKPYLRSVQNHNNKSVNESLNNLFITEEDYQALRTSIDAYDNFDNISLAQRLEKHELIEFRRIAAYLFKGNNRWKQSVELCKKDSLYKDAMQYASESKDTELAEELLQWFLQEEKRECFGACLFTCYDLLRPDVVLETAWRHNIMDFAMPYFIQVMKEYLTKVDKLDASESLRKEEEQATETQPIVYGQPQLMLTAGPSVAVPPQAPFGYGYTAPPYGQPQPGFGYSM
UniProt O00443: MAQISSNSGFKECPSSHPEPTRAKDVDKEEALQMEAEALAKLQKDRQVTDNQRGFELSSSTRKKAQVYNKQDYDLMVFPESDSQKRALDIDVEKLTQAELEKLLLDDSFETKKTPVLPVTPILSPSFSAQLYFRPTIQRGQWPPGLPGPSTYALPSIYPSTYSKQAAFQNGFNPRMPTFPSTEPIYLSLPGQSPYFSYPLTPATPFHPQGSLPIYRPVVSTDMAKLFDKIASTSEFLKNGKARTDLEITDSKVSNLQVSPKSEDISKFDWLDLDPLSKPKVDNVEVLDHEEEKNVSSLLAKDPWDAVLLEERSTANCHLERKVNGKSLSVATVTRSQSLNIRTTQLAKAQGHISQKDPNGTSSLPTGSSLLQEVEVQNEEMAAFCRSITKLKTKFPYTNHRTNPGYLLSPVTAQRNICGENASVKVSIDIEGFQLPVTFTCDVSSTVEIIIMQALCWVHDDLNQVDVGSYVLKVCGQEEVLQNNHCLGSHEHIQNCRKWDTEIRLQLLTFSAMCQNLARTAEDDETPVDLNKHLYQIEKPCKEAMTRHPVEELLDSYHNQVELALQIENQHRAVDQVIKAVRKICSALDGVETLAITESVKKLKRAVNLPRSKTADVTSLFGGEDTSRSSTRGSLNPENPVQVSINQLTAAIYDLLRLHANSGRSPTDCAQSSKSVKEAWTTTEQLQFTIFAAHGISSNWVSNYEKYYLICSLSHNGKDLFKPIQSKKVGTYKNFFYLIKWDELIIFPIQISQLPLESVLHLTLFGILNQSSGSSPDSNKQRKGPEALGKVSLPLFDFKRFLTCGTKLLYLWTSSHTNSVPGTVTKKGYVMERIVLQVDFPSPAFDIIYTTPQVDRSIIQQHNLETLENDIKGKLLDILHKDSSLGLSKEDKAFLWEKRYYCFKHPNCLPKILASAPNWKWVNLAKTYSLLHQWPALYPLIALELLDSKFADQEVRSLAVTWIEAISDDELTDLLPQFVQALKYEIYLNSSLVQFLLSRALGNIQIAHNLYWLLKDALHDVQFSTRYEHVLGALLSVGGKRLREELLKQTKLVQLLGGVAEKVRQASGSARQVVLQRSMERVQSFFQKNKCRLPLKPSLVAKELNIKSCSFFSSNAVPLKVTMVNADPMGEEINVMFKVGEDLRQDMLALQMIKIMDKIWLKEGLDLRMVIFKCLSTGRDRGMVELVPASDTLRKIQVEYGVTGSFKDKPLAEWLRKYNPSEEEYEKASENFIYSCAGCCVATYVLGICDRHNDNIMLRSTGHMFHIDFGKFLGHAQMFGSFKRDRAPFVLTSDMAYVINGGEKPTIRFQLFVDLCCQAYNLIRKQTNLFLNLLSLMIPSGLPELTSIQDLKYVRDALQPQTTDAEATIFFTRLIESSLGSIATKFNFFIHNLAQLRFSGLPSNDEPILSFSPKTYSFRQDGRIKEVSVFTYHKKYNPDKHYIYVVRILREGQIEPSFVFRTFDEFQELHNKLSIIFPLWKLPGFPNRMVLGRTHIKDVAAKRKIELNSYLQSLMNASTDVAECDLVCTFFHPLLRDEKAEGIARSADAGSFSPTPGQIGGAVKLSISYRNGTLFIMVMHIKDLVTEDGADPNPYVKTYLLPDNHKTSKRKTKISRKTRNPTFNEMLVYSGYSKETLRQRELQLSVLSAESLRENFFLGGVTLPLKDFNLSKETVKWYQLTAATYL

target: glutamate-rich 3 (ERICH3), endogenous in SK-N-SH cells (human (endogenous in SK-N-SH)) (UniProt Q5RHP9); experiment: co-IP; Co-IP with ERICH3 antibody from SK-N-SH cells, control IgG; Western blot of the partners

| binding | Substance |
| --- | --- |
| binds | adaptor related protein complex 2 subunit alpha 2 (AP2A2) (from UniProt O94973 1-939) |
| binds | clathrin heavy chain (CLTC) (from UniProt Q00610 1-1675) |
| binds | phosphatidylinositol-4-phosphate 3-kinase catalytic subunit type 2 alpha (PIK3C2A) (from UniProt O00443 1-1686) |

target: mCherry-tagged ERICH3 isoform P-1 (human) (UniProt Q5RHP9); experiment: co-IP; anti-mCherry IP from HEK293T cells overexpressing mCherry-tagged ERICH3 isoforms; Western blot of endogenous partners

| binding | Substance |
| --- | --- |
| binds | adaptor related protein complex 2 subunit alpha 2 (AP2A2) (from UniProt O94973 1-939) |
| binds | clathrin heavy chain (CLTC) (from UniProt Q00610 1-1675) |
| binds | phosphatidylinositol-4-phosphate 3-kinase catalytic subunit type 2 alpha (PIK3C2A) (from UniProt O00443 1-1686) |

target: T1, mCherry-tagged ERICH3 isoform P-3 (human) (UniProt Q5RHP9); experiment: as above
T1 sequence: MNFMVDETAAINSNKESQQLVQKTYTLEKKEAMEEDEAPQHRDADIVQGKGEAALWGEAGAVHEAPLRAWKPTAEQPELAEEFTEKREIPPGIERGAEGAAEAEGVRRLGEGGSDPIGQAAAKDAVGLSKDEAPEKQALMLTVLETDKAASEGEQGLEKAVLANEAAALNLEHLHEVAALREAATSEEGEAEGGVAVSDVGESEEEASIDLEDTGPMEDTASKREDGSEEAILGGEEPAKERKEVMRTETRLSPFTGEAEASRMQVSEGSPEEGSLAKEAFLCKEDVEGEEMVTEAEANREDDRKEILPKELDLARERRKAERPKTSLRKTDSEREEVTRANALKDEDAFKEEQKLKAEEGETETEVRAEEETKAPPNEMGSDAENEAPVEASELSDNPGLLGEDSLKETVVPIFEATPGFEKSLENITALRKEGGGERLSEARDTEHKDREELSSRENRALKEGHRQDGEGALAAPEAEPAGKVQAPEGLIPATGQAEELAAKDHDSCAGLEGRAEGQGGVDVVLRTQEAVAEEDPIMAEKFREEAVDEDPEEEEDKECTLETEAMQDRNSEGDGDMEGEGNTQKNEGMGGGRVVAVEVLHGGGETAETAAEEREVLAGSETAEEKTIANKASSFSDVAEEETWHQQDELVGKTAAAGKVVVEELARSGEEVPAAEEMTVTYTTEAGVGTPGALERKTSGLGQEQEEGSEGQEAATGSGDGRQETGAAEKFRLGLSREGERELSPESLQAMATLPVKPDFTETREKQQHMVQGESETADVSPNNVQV

| binding | Substance |
| --- | --- |
| no binding | adaptor related protein complex 2 subunit alpha 2 (AP2A2) (from UniProt O94973 1-939) |
| no binding | clathrin heavy chain (CLTC) (from UniProt Q00610 1-1675) |
| no binding | phosphatidylinositol-4-phosphate 3-kinase catalytic subunit type 2 alpha (PIK3C2A) (from UniProt O00443 1-1686) |
